Laboratory results taken from the supplement of paper PMC11125491.
± gives the standard deviation of the averaged measurements. Growth of baker's yeast expressing single-residue variants of Pneumocystis jirovecii dihydrofolate reductase in 8.8 or 44 µM methotrexate (about 75% and 90% inhibition of the wild type). Selection coefficient per generation; 0 = like wild type, above 0 = less sensitive, below 0 = more sensitive or loss of function. No active / inactive call per row; the paper calls resistant above 0.220 (8.8 µM) or 0.243 (44 µM) together with a significance test. At 44 µM about 15% of codons end with one read or none, so the lowest values are floors (replicate rank correlation 0.74; 0.94 at 8.8 µM).

B1: UniProt A0EPZ9; numbered along this chain (parent)
chain: MDWQKSLTLIVALTLSRGIGLKNDLPWKLKSDMMFFSRVTSGLLVTRSTGQMNVVLMGRKTWESLPAHSRPLKNRINVVISRQEVLDLGGGAYHARSLDDALALLSQIYDSTSKIQLNRVFVIGGGELCKAAMEHSRLNRIIATVIHNEVDCDVFFPIDFRSSQSCLPWRKQDHSVLEAWVGSKVPQGKINENGFIYEFEMWIRDI

Variants of: B1
Experiment: selection coefficient against synonymous wild-type codons (log2 per generation); higher = faster growth than wild type
Conditions: with Saccharomyces cerevisiae carrying the variant on a plasmid
Experimental: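 Pooled growth of yeast carrying single-residue variants of P. jirovecii dihydrofolate reductase (own DFR1 gene intact), two passages at 30 °C, three cultures, sequenced before and after. Codons with under 15 starting reads are left out; codons of one change are averaged.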

Variant	selection coefficient against synonymous wild-type codons (log2) (methotrexate 8.8 µM)	selection coefficient against synonymous wild-type codons (log2) (methotrexate 44 µM)
D153Q	0.186 ± 0.037	0.191 ± 0.02
D153W	-0.362 ± 0.049	-0.474 ± 0.0092
D153H	0.145 ± 0.065	0.0166 ± 0.15
D153E	0.167 ± 0.06	0.0779 ± 0.085
D153I	-0.48 ± 0.26	-0.384 ± 0.022
D153C	-0.0264 ± 0.048	-0.135 ± 0.078
D153L	-0.307 ± 0.088	-0.267 ± 0.087
D153Y	-0.256 ± 0.068	-0.139 ± 0.087
D153P	-0.208 ± 0.097	-0.127 ± 0.14
D153G	0.279 ± 0.045	0.286 ± 0.028
D153K	0.204 ± 0.067	0.171 ± 0.053
D153R	0.232 ± 0.058	0.216 ± 0.062
D153M	-0.112 ± 0.014	-0.111 ± 0.058
D153S	0.0671 ± 0.049	-0.0605 ± 0.1
D153F	-0.359 ± 0.018	-0.305 ± 0.034
D153V	-0.318 ± 0.031	-0.218 ± 0.12
D153N	0.0713 ± 0.051	0.0378 ± 0.035
D153T	-0.0424 ± 0.054	-0.179 ± 0.15
D153A	0.167 ± 0.031	0.0806 ± 0.042
Q164I	-0.000516 ± 0.033	-0.183 ± 0.16
Q164F	-0.0669 ± 0.043	-0.136 ± 0.097
Q164E	-0.0495 ± 0.066	-0.114 ± 0.083
Q164L	-0.0186 ± 0.042	-0.0758 ± 0.1

Variant	selection coefficient against synonymous wild-type codons (log2) (methotrexate 8.8 µM)	selection coefficient against synonymous wild-type codons (log2) (methotrexate 44 µM)
Q164A	-0.0434 ± 0.032	-0.1 ± 0.069
Q164G	-0.0503 ± 0.036	-0.102 ± 0.077
Q164K	-0.0172 ± 0.039	-0.0793 ± 0.036
Q164C	-0.18 ± 0.046	-0.257 ± 0.25
Q164H	0.00678 ± 0.052	0.18 ± 0.019
Q164D	-0.0545 ± 0.1	-0.0424 ± 0.099
F160E	0.503 ± 0.038	0.584 ± 0.051
F160A	0.446 ± 0.048	0.439 ± 0.039
F160N	0.503 ± 0.036	0.533 ± 0.03
F160H	0.474 ± 0.05	0.555 ± 0.0066
F160P	0.281 ± 0.089	0.247 ± 0.065
F160L	0.107 ± 0.047	0.0286 ± 0.1
F160V	0.181 ± 0.055	0.215 ± 0.14
F160Y	0.116 ± 0.05	-0.0166 ± 0.053
F160W	-0.00957 ± 0.018	-0.101 ± 0.13
F160T	0.425 ± 0.049	0.444 ± 0.032
F160R	0.428 ± 0.044	0.444 ± 0.037
F160M	0.184 ± 0.051	0.125 ± 0.053
F160K	0.478 ± 0.05	0.518 ± 0.059
F160C	0.346 ± 0.032	0.3438 ± 0.002
F160I	0.106 ± 0.037	0.0205 ± 0.086
F160D	0.505 ± 0.031	0.607 ± 0.041
F160S	0.459 ± 0.042	0.481 ± 0.029

Variant	selection coefficient against synonymous wild-type codons (log2) (methotrexate 8.8 µM)	selection coefficient against synonymous wild-type codons (log2) (methotrexate 44 µM)
F160G	0.506 ± 0.045	0.558 ± 0.03
F160Q	0.483 ± 0.0071	0.511 ± 0.023
C152M	0.456 ± 0.0098	0.503 ± 0.11
C152I	0.214 ± 0.033	0.189 ± 0.05
C152W	0.281 ± 0.067	0.314 ± 0.024
C152P	0.242 ± 0.05	0.309 ± 0.019
C152H	0.254 ± 0.045	0.23 ± 0.018
C152N	0.416 ± 0.07	0.411 ± 0.048
C152R	0.332 ± 0.062	0.392 ± 0.057
C152S	0.138 ± 0.034	0.0544 ± 0.057
C152Y	0.123 ± 0.048	0.076 ± 0.14
C152V	0.0263 ± 0.036	-0.00895 ± 0.093
C152T	0.191 ± 0.037	0.123 ± 0.002
C152L	0.357 ± 0.037	0.391 ± 0.038
C152Q	0.362 ± 0.013	0.372 ± 0.024
P157I	-0.599 ± 0.046	-0.23 ± 0.031
P157G	-0.0398 ± 0.066	-0.0839 ± 0.077
P157M	-0.569 ± 0.13	-0.393 ± 0.04
P157T	-0.391 ± 0.13	-0.286 ± 0.1
P157F	-0.601 ± 0.014	-0.232 ± 0.046
P157V	-0.641 ± 0.16	-0.35 ± 0.094
P157C	-0.445 ± 0.19	-0.371 ± 0.07
P157R	-0.282 ± 0.077	-0.296 ± 0.1

Variant	selection coefficient against synonymous wild-type codons (log2) (methotrexate 8.8 µM)	selection coefficient against synonymous wild-type codons (log2) (methotrexate 44 µM)
P157E	-0.224 ± 0.06	-0.217 ± 0.21
P157N	-0.0368 ± 0.049	-0.0862 ± 0.13
P157Q	-0.237 ± 0.056	-0.275 ± 0.071
P157Y	-0.53 ± 0.11	-0.356 ± 0.011
P157K	-0.195 ± 0.052	-0.15 ± 0.023
P157L	-0.538 ± 0.11	-0.274 ± 0.11
P157W	-0.563 ± 0.17	-0.46 ± 0.019
P157S	-0.309 ± 0.11	-0.216 ± 0.13
P157D	0.0447 ± 0.021	-0.0102 ± 0.079
P157H	-0.265 ± 0.1	-0.144 ± 0.11
P157A	-0.377 ± 0.08	-0.27 ± 0.099
R161I	-0.00388 ± 0.065	-0.0613 ± 0.079
R161S	0.171 ± 0.07	0.106 ± 0.052
R161N	0.217 ± 0.027	0.18 ± 0.044
R161C	0.055 ± 0.072	0.0141 ± 0.045
R161V	0.103 ± 0.03	0.0114 ± 0.12
R161K	0.143 ± 0.041	0.0842 ± 0.042
R161M	-0.0449 ± 0.022	-0.145 ± 0.075
R161A	0.158 ± 0.043	0.0737 ± 0.11
R161G	0.19 ± 0.093	0.207 ± 0.052
R161P	0.293 ± 0.034	0.226 ± 0.023
R161E	0.358 ± 0.025	0.334 ± 0.0067
R161Y	-0.00342 ± 0.031	-0.123 ± 0.11

Variant	selection coefficient against synonymous wild-type codons (log2) (methotrexate 8.8 µM)	selection coefficient against synonymous wild-type codons (log2) (methotrexate 44 µM)
R161H	0.0651 ± 0.033	0.0239 ± 0.12
R161Q	0.128 ± 0.05	0.077 ± 0.049
R161D	0.37 ± 0.03	0.369 ± 0.061
R161W	-0.0765 ± 0.034	-0.173 ± 0.03
R161L	-0.0268 ± 0.044	-0.137 ± 0.12
R161T	0.135 ± 0.045	0.0874 ± 0.037
D159K	-0.00262 ± 0.044	-0.0656 ± 0.12
D159C	-0.107 ± 0.1	-0.188 ± 0.058
D159E	-0.067 ± 0.038	-0.0279 ± 0.056
D159H	-0.0522 ± 0.075	-0.0669 ± 0.15
D159R	-0.0304 ± 0.049	-0.178 ± 0.14
D159M	-0.0716 ± 0.099	-0.186 ± 0.054
D159T	-0.0361 ± 0.054	-0.134 ± 0.13
D159Y	-0.168 ± 0.062	-0.0948 ± 0.056
D159L	-0.0263 ± 0.064	-0.0148 ± 0.23
D159G	-0.0103 ± 0.04	-0.119 ± 0.1
D159W	-0.106 ± 0.054	-0.211 ± 0.08
D159P	-0.0174 ± 0.06	-0.0741 ± 0.13
D159Q	0.00557 ± 0.087	-0.0601 ± 0.12
D159S	-0.0725 ± 0.048	-0.179 ± 0.1
D159F	-0.115 ± 0.048	-0.171 ± 0.2
D159A	-0.0605 ± 0.047	-0.142 ± 0.079
D159N	-0.0345 ± 0.13	-0.0755 ± 0.11
